# Laboratory results: PubChem BioAssay AID1347077 (National Center for Advancing Translational Sciences (NCATS), 2019)
# Screen size: about 44,000 compounds; fewer than 10 were called active. The shares of active, inactive and inconclusive entries below differ from those in the screen. The call rests on the fitted dose curve; in most records, active means well fitted activation curve with a large enough effect; inconclusive means small, poorly fitted or top-dose-only effect, or another doubt; inactive means no such curve, though single readings can be large or run the other way. No potency is given beside an inconclusive call; the fits are too rough.
# Molecular target: Beta-2 adrenergic receptor (Homo sapiens) (UniProt P07550)
# Sequence of UniProt P07550 (P07550 whole entry, looked up): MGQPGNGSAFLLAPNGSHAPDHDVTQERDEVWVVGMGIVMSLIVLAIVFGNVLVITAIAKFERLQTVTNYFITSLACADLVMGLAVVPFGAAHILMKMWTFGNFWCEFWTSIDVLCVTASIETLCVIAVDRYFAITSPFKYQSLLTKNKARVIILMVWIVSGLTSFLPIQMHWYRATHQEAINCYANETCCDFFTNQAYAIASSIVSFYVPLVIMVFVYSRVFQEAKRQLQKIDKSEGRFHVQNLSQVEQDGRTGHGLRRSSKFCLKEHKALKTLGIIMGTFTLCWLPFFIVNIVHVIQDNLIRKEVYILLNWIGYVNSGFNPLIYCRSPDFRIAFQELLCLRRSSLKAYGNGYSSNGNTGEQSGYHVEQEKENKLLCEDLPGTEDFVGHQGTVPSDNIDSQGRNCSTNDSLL
# Assay: qHTS assay of beta-arrestin-biased ligands of beta2-adrenergic receptor: NCGC Sytravon Library Screen
# Conditions: HTLA Tango cells, beta-arrestin recruitment, luciferase luminescence, 18 h; series mostly up to 46.1 µM
# Outline: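 Tango cells expressing recombinant beta2-AR and beta-arrestin were treated with compounds (up to 46 microM titration) in DMEM with 1% FBS for 18 hr at 37 degrees C. Beta-arrestin recruitment drove tTA-dependent luciferase, read by luminescence; curves were fitted and classed.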
# Potency means the concentration at half of the fitted maximal effect; tags describe the fitted curve by direction and shape.
row,SMILES,Potency
1,Cc1cc(C)cc(NC(=O)Cn2cc(C(=O)c3ccncc3)c(=O)c3cc(C)c(C)cc32)c1,"inconclusive [activator, single point]"
2,Cc1ccc(Cl)cc1NC(=O)c1csnn1,"inconclusive [activator, partial curve, poor fit]"
3,O=C(NC1CCCC1)c1ccc2c(=O)n(Cc3ccccc3)c(SCc3ccc([N+](=O)[O-])cc3)nc2c1,"inconclusive [activator, partial curve, poor fit]"
4,CCS(=O)(=O)c1ncc(Cl)c(C(=O)NCc2ccc(OC)cc2)n1,"inconclusive [activator, single point]"
5,O=C(CN1C(=O)CSc2ccc(S(=O)(=O)N3CCCC3)cc21)Nc1cccc(Cl)c1,"inconclusive [activator, partial curve, poor fit]"
6,Cc1cc2c(n1-c1ccc(C(=O)NCc3ccccc3Cl)cc1)CCCC2,"inconclusive [activator, single point]"
7,COc1ccc(-c2cc(C(F)(F)F)nc(SCC(=O)NCC(C)C)n2)cc1OC,"inconclusive [activator, partial curve, poor fit]"
8,CC(Oc1ccccc1)C(=O)Nc1ccccc1C(=O)OCc1cc(=O)n2nc(C(C)C)sc2n1 (stereo not drawn),inactive
9,O=C(CSc1cn(CCNC(=O)c2cccc(C(F)(F)F)c2)c2ccccc12)Nc1ccc2c(c1)OCCO2,inactive
10,Cc1cc(C)c(S(=O)(=O)NCC(c2ccc(N(C)C)cc2)N2CCc3ccccc32)c(C)c1 (stereo not drawn),"inconclusive [activator, single point]"
11,CCOc1ccc(CNC(=O)c2cnc(SC)nc2CC)cc1,"inconclusive [activator, single point]"
12,CCc1nc2c(cnn2-c2ccc(Cl)cc2)c(=O)n1-c1ccc(OC)c(Cl)c1,"inconclusive [activator, single point]"
13,O=C1c2[nH]nc(-c3ccccc3O)c2C(c2ccc(Cl)cc2)N1CCc1ccccc1 (stereo not drawn),"inconclusive [activator, single point]"
14,COc1ccc2c(c1)c1c(c(=O)n(-c3ccc(C)cc3)c(=O)n1CC(=O)N1CCCC1)n2C,"inconclusive [activator, single point]"
15,CCN1CCN(C(c2ccccc2)c2sc3nc(-c4ccco4)nn3c2O)CC1 (stereo not drawn),"inconclusive [activator, single point]"
16,COc1cc(C(=O)NCC(c2ccc3c(c2)OCO3)N2CCN(C)CC2)cc(OC)c1OC (stereo not drawn),"inconclusive [activator, single point]"
17,CCOc1ccc(-c2cc(C(=O)N3CCN(c4cccc(C)c4)C(C)C3)c3ccccc3n2)cc1 (stereo not drawn),inactive
18,CCc1ccc(NC(=O)Cn2c(=O)n(Cc3nc(C)no3)c(=O)c3cc4c(cc32)OCO4)cc1,"inconclusive [activator, partial curve, poor fit]"
19,CCc1nnc(SCc2nc(-c3ccccc3)oc2C)c2cc3sccc3n12,"inconclusive [activator, single point]"
20,CC(NC(=O)c1cc2sccc2n1Cc1ccc(F)cc1)c1ccccc1 (stereo not drawn),inactive
21,O=C(CCS(=O)(=O)c1nc(-c2cccs2)cc(C(F)(F)F)n1)Nc1cccc(O)c1,"inconclusive [activator, single point]"

row,SMILES,Potency
1,COc1ccc(CNC(=O)c2nn(-c3ccccc3C)nc2CO)cc1,inactive
2,CCOCc1cc(CN2CCN(c3cccc(Cl)c3)CC2)c(O)c2ncccc12,"inconclusive [activator, single point]"
3,CCc1ccccc1NC(=O)NCc1ccc2c(c1)CCN2C(=O)c1ccccc1,"inconclusive [activator, partial curve, poor fit]"
4,COCCNc1nc(NCc2ccccc2OC)c2cnn(C)c2n1,inactive
5,O=C(CSc1nc2ccccc2n1Cc1ccccc1F)NCc1ccccc1,inactive
6,CCCN(c1ccccc1CC)S(=O)(=O)c1ccc2c(c1)CC(C)N2C(=O)C1CC1 (stereo not drawn),inactive
7,Cc1ccc(CNC(=O)c2ccc(-n3c(C)cc4c3CCCC4)cc2)cc1,"inconclusive [activator, single point]"
8,CSc1nc2sc3c(c2c(=O)n1-c1ccccc1C)CCCC3,"inconclusive [activator, partial curve, poor fit]"
9,COc1ccc(-n2c(=O)c3c4c(sc3n(Cc3ccccc3)c2=O)CCC4)c(OC)c1,"inconclusive [activator, partial curve]"
10,CCc1ccccc1NC(=O)Cn1nc(-c2cc(C)ccc2C)c2c(c1=O)CCCC2,"inconclusive [activator, partial curve, poor fit]"
11,CCc1cc2c(cc3c(=O)n(CC(=O)NCc4cccc(Cl)c4)nc(CC)n32)s1,inactive
12,O=C(Nc1ccccc1C(F)(F)F)N1Cc2ccccc2Oc2ncccc21,inactive
13,CCC(=O)N1c2ccccc2CC1C(=O)NCCCN1CCN(c2ccc(F)cc2)CC1 (stereo not drawn),inactive
14,CCCC(=O)Nc1ccc2nc(SCCOc3ccccc3)sc2c1,"inconclusive [activator, partial curve, poor fit]"
15,COc1cccc(CNC(=O)c2cc(S(=O)(=O)N3CCCCC3)c[nH]2)c1,"inconclusive [activator, partial curve, poor fit]"
16,CCCCN1CC(c2nc3ccccc3n2CCCCOc2cccc(C)c2C)CC1=O (stereo not drawn),inactive
17,Cc1csc2nc(COC(=O)c3ccc(NC(=O)COc4ccccc4F)cc3)cc(=O)n12,inactive
18,COc1cc(CN(C(=O)c2cc3ccccc3oc2=O)C2CCS(=O)(=O)C2)cc(OC)c1OC (stereo not drawn),inactive
19,COc1ccc(CCNC(=O)c2nn(-c3ccc(C)cc3)c(=O)c3c2c2ccccc2n3C)cc1OC,"inconclusive [activator, partial curve, poor fit]"
20,CCOC(=O)c1sc2ccccc2c1S(=O)(=O)Nc1ccc(N(C)C)cc1,inactive
21,CCCCN(CC)CCNC(=O)c1c(C)oc2ncnc(N3CCOCC3)c12,"inconclusive [activator, single point]"

row,SMILES,Potency
1,Cc1ccc(CNC(=O)c2sc3nc[nH]c(=O)c3c2C)cc1,"inconclusive [activator, partial curve, poor fit]"
2,CC(=O)c1ccc(N2CCN(c3ccc(NC(=O)c4ccc(F)cc4)cc3C(=O)O)CC2)cc1,inactive
3,Cc1ccc(-n2c(SCc3cccc(F)c3)nc3[nH]ncc3c2=O)cc1C,"inconclusive [activator, single point]"
4,COc1ccc(/C=C/c2nc(C#N)c(NCc3ccc(F)cc3)o2)cc1OC,"inconclusive [activator, partial curve, poor fit]"
5,COc1ccc(CC(=O)Nc2ccc3nc(Nc4ccc(OC)cc4)cc(C)c3c2)cc1,inactive
6,COc1ccc2c(c1)c1c(c(=O)n(-c3cccc(C)c3)c(=O)n1CC(=O)NCC1CCCO1)n2C (stereo not drawn),inactive
7,COc1ccc(Br)cc1CNC(=O)CCc1cn(Cc2ccc(C)cc2)c2ccccc12,"inconclusive [activator, partial curve, poor fit]"
8,COc1ccccc1CNC(=O)c1ccc(-n2c(C)cc3c2CCCC3)cc1,"inconclusive [activator, single point]"
9,COc1cc(Cl)c(C)cc1NC(=O)c1cc2c(Cl)nc3ccc(C)cc3c2s1,"inconclusive [activator, partial curve, poor fit]"
10,COc1ccc(NC(=O)c2c(NCc3cccs3)sc3c2CCC(C)C3)c(OC)c1 (stereo not drawn),"inconclusive [activator, partial curve, poor fit]"
11,CCN(CC)S(=O)(=O)c1ccc2c(c1)nc(CN(C)C(=O)Nc1ccc(C)c(Cl)c1)n2C,"inconclusive [activator, partial curve, poor fit]"
12,COc1ccc2c(c1)c(N1CCCC1=O)c(C(=O)Nc1ccc(OC)c(Cl)c1)n2C,inactive
13,COc1ccc(-n2c(SCCC(C)C)nc3sc4c(c3c2=O)CC(C(C)C)OC4)cc1 (stereo not drawn),"inconclusive [activator, partial curve, poor fit]"
14,CN1C(=O)c2cccc3c(S(=O)(=O)Nc4cccc(C(=O)O)c4)ccc1c23,inactive
15,CCOCc1cc(CN2CCN(c3cccc(C(F)(F)F)c3)CC2)c(O)c2ncccc12,"inconclusive [activator, partial curve, poor fit]"
16,COc1ccc(CCNC(=O)c2ccc(-n3c(C)cc4c3CCC(C)C4)cc2)cc1OC (stereo not drawn),"inconclusive [activator, single point]"
17,Cc1cccc2nc(-c3ccccn3)c(Nc3ccccc3)n12,"inconclusive [activator, single point]"
18,CSc1ccc(CCNC(=O)c2ccc(-n3c(C)cc4c3CCC(C)C4)cc2)cc1 (stereo not drawn),"inconclusive [activator, partial curve]"
19,COc1ccccc1CNC(=O)CCC1N=C2c3ccccc3N=C(SCc3ccc(Cl)cc3)N2C1=O (stereo not drawn),"inconclusive [activator, single point]"
20,O=C(Nc1ccc(N2CCC(N3CCCCC3)CC2)c(C(=O)O)c1)c1ccc(Br)cc1,inactive
21,COc1ccccc1NC(=O)c1c(NCc2sccc2C)sc2c1CCCCC2,"inconclusive [activator, single point]"
